Among all 94,000 compounds or so, about 20 (0.02%) were called active. Inconclusive means that the source gave no clear call. Such entries were picked first, then a sample of the others. Calls follow the shape of the dose curve; as a rule, active = well fitted activation curve with a large enough effect; inconclusive = small, poorly fitted or top-dose-only effect; inactive = flat fitted curve, though single readings scatter. Potencies of inconclusive entries are left out as doubtful fits.
Assay: qHTS of alpha-syn Inhibitors: NCGC Sytravon Library Screen; as to growth rescue (activation): 0% is about no effect
Settings: S. cerevisiae alpha-synuclein toxicity rescue, BacTiter-Glo growth, 24 h; growth rescue (activation): at 46.1 µM (top of the series)
In short: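 Growth restoration measured by BacTiter-Glo luminescence after 24 hr at 30 deg C; alpha-synuclein yeast, raffinose-pregrown to mid-log, were added at OD600=0.02 in galactose medium onto pinned compounds.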
For `Cc1ccc(C)c(Cn2nc(-c3cc(C)ccc3C)ccc2=O)c1`, the Potency was inconclusive [activator, single point]. For `CCCCN(CC)CCCNC(=O)c1cc2c(=O)oc3ccc(C)cc3c2s1`, the Potency was inconclusive [activator, single point]. In the case of `Cc1nc2ccc(S(=O)(=O)NC(CC(C)C)C(=O)NCc3ccc(Cl)cc3)cc2s1` (stereo not given), the “growth rescue (activation)” value is reported as inactive: 6.61%. In the case of `O=C(Nc1ccccc1Br)c1cc(S(=O)(=O)NC2CCCCC2)ccc1F`, the Potency is reported as inconclusive [activator, single point]. With `O=C(COc1ccc(Cl)cc1)NCC(c1ccco1)S(=O)(=O)c1ccc(Cl)cc1` (stereo not given) the Potency was inconclusive [activator, single point]. For `O=C(CCc1ccccc1)NC(c1cccs1)c1cc(Cl)c2cccnc2c1O` (stereo not given), the growth rescue (activation) was inconclusive: 72.8% [activator]. For `COC(=O)C(=O)/C=C(\O)c1ccc(C)cc1`, the growth rescue (activation) was inconclusive: 71.9% [activator]. For `COC(=O)c1cccc(CN2C(=O)SC(Nc3ccc(Cl)cc3)C2=O)c1` (stereo not given), the Potency was inconclusive [activator, single point]. With `Cn1c(=O)n(C)c2cc(NS(=O)(=O)c3ccc(C(C)(C)C)cc3)c(NCc3ccccc3)cc21` the “growth rescue (activation)” value was inactive: -0.861%. In the case of `Cc1ccc(C2c3[nH]c4ccccc4c3CCN2C(=O)CCc2ccccc2)cc1` (stereo not given), the Potency is reported as inconclusive [activator, partial curve]. For `O=C(O/N=C(\c1ccccc1)c1ccncc1)c1ccccc1F`, the growth rescue (activation) was inconclusive: 301% [activator]. With `Cc1ccc(S(=O)(=O)CCC(=O)OCCOc2ccc(Br)cc2)cc1` the growth rescue (activation) was inconclusive: 34.5% [activator]. With `COc1ccc(NC(=O)c2[nH]c(C)c(C(C)=O)c2C)cc1S(=O)(=O)Nc1ccc(Br)cc1` the “growth rescue (activation)” value was inactive: -6.32%. For `Cc1ccc(C(=O)CC2(O)C(=O)N(Cc3ccccc3)c3ccc(Br)cc32)cc1` (stereo not given), the Potency was inconclusive [activator, single point]. For `CCc1ccccc1N1C(=O)N(C)c2ccccc2S1(=O)=O`, the growth rescue (activation) was inconclusive: 30.5% [activator]. For `COc1cc(NS(=O)(=O)c2ccc(-c3cc(C)no3)cc2)cc(OC)c1`, the Potency was inconclusive [activator, single point]. For `O=C(CN1CCN(Cc2ccccc2Cl)C1=O)NCCc1ccc(Cl)cc1`, the growth rescue (activation) was inconclusive: 31.1% [activator]. With `O=C(Nc1ccc(Cl)cc1)c1cc(S(=O)(=O)NC2CCCCCC2)ccc1F` the Potency was inconclusive [activator, single point]. With `O=C(c1cc2ccc3cccnc3c2[nH]1)N1CCN(c2cccc(Cl)c2)CC1` the Potency was inconclusive [activator, single point]. In the case of `O=c1oc2ccccc2cc1-c1nc(-c2cccs2)no1`, the “growth rescue (activation)” value is reported as inactive: -18.2%. In the case of `COc1ccccc1NC(=O)C1=C(C)Nc2nc(SCc3cccc(F)c3)nn2C1c1ccc(C(=O)O)cc1` (stereo not given), the Potency is reported as inconclusive [activator, single point]. In the case of `CC1CCN(C(=O)C(C)Sc2nc(-c3ccccc3)cc(C(F)(F)F)n2)CC1` (stereo not given), the Potency is reported as inconclusive [activator, single point]. In the case of `COc1ccc2sc(N(Cc3cccnc3)C(=O)COc3ccccc3)nc2c1`, the Potency is reported as inconclusive [activator, single point]. For `Cc1ccc2c(c1)-c1c(cnn1CC(=O)N1CCN(c3ccccc3F)CC1)CO2`, the Potency was inconclusive [activator, single point]. For `O=C(CSc1ncc(-c2ccccc2)[nH]1)Nc1ccc(Cl)cc1`, the “growth rescue (activation)” value was inactive: 4.08%. For `Cc1ccsc1CN(C(=O)c1oc2ccc(Br)cc2c1C)C1CCS(=O)(=O)C1` (stereo not given), the growth rescue (activation) was inconclusive: 34.4% [activator]. For `CN(Cc1ccccc1)S(=O)(=O)c1ccc2[nH]c3c(c2c1)CCCCC3`, the Potency was inconclusive [activator, single point]. In the case of `CCOC(=O)N1CCC(NC(=O)c2cnn(-c3cccc(F)c3)c2-n2cccc2)CC1`, the “growth rescue (activation)” value is reported as inactive: -2.79%. With `O=C(Cc1ccc(Cl)cc1)NCC(c1cccs1)S(=O)(=O)c1ccc(F)cc1` (stereo not given) the Potency was inconclusive [activator, single point]. For `COc1ccc(C)cc1NC(=O)CSc1ccc(-c2ccccn2)nn1`, the Potency was inconclusive [activator, single point]. With `CC(C)c1ccc(NC(=O)c2cc(S(=O)(=O)NCc3ccccc3Cl)ccc2F)cc1` the Potency was inconclusive [activator, single point]. In the case of `COc1ccc(CNC(=O)c2ccc3c(c2)CCN3S(=O)(=O)c2ccc(C)cc2)cc1`, the “growth rescue (activation)” value is reported as inactive: -2.2%. In the case of `CCOc1cc2c(Cl)ncnc2c(OCC)c1OCC`, the “growth rescue (activation)” value is reported as inactive: -10.8%. In the case of `Cc1ccccc1-c1nc(CS(=O)(=O)CC(=O)N2CCN(c3ccccc3)CC2)c(C)o1`, the growth rescue (activation) is reported as inconclusive: 33% [activator]. With `Cc1cc(N2CCCCC2)nc2ccc(NC(=O)/C=C/c3ccccc3OC(C)C)cc12` the Potency was inconclusive [activator, single point]. For `CCN(CC)S(=O)(=O)c1ccc2c(c1)N(CC(=O)N1CCN(c3ccccc3F)CC1)C(=O)CO2`, the “growth rescue (activation)” value was inactive: -4.37%. For `CCNC(=S)N(CCc1c(C)[nH]c2ccc(C)cc12)Cc1cccs1`, the growth rescue (activation) was inconclusive: 36.3% [activator]. For `COc1ccccc1N1CCN(CC(=O)NCCc2ccc(S(N)(=O)=O)cc2)CC1`, the “growth rescue (activation)” value was inactive: 0.992%. For `CC(C)CCN(Cc1ccco1)C(=O)c1cc2c(Cl)nc3ccccc3c2s1`, the “growth rescue (activation)” value was inactive: 6.55%. In the case of `COC(=O)c1scc(-c2ccccc2)c1S(=O)(=O)Nc1cccc(C)c1C`, the “growth rescue (activation)” value is reported as inactive: 7.21%. With `Cc1c(CNC(C)CCc2ccccc2)c(C(=O)O)c(C)n1Cc1ccc(F)cc1Cl` (stereo not given) the “growth rescue (activation)” value was inactive: 7.07%. With `CC(=O)N1c2ccccc2C(=O)C1N1CCN(c2ccccc2)CC1` (stereo not given) the Potency was inconclusive [activator, single point]. For `COc1ccc(S(=O)(=O)Nc2cc3c(cc2NCc2ccccc2)n(C)c(=O)n3C)cc1OC`, the “growth rescue (activation)” value was inactive: -12%. With `Cc1cc(C)cc(-n2nnc(-c3nc(-c4ccccc4F)no3)c2C)c1` the growth rescue (activation) was inconclusive: 10.1% [activator]. For `Clc1cccc(-n2ncc3c(NCCCn4ccnc4)ncnc32)c1`, the “growth rescue (activation)” value was inactive: 4.01%.
Potency is read from the fitted curve at half-maximal effect; tags tell the direction and shape of the fitted curve.
